Results are given in words; binding and its absence hold for the method and conditions named. In cells and extracts the contact can be indirect. Some entries that bind do so weakly or less than the wild type. Tags and fused reporters may be left off the sequences shown.
Columns and labels:
Assay in all cases: co-IP; anti-FLAG agarose IP from lysates of U2OS FAM83H-/- cells transiently transfected with FLAG-FAM83H constructs, 1 h at 4 °C (16 h in Fig. 6C); immunoblot of endogenous preys
[1] = target: T1, FLAG-FAM83H^D236A (human) (UniProt Q6ZRV2)
T1 sequence: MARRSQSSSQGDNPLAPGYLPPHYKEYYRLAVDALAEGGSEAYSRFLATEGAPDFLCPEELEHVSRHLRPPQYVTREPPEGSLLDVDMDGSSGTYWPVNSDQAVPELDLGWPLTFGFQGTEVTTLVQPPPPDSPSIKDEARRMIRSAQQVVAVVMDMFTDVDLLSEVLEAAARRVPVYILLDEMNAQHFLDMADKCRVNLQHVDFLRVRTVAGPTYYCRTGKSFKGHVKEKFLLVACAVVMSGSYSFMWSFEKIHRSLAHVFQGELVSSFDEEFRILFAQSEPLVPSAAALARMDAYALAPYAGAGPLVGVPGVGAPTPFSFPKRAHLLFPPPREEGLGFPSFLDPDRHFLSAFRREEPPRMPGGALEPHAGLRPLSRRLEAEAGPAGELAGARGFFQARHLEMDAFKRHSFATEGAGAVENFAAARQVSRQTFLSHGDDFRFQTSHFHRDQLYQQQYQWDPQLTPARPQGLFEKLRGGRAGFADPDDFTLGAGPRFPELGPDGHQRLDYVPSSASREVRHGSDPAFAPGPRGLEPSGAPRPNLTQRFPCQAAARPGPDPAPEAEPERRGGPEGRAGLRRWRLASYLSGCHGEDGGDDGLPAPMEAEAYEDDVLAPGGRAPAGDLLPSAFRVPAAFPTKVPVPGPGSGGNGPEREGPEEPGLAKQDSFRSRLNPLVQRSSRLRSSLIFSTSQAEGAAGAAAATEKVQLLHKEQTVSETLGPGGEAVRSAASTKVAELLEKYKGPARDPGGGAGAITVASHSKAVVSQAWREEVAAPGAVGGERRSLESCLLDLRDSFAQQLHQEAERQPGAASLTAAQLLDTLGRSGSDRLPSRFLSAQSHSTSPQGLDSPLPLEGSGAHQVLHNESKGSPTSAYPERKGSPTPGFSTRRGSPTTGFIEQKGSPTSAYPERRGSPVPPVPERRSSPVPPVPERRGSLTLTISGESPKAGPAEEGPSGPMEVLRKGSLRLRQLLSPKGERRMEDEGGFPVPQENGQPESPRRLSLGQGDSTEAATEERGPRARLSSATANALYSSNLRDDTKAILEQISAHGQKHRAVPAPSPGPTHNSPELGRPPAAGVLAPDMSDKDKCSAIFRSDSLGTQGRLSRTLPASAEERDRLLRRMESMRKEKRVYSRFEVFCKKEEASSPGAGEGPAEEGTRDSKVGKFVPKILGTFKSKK

By UniProt entry, the sequences of proteins in these tests, tags left out.
UniProt P49674: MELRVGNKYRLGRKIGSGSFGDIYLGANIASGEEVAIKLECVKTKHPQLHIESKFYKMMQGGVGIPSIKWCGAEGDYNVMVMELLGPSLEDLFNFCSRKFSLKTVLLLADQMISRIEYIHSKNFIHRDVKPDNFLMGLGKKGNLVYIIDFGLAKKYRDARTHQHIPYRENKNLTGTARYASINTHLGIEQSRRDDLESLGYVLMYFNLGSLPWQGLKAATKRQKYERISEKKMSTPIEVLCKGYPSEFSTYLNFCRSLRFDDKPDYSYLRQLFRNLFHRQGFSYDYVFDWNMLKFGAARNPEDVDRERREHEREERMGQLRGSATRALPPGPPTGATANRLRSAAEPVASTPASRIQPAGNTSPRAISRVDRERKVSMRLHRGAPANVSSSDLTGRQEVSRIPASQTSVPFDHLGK

[2] = target: T2, FLAG-FAM83H^(S287X, D236A) (human) (UniProt Q6ZRV2)
T2 sequence: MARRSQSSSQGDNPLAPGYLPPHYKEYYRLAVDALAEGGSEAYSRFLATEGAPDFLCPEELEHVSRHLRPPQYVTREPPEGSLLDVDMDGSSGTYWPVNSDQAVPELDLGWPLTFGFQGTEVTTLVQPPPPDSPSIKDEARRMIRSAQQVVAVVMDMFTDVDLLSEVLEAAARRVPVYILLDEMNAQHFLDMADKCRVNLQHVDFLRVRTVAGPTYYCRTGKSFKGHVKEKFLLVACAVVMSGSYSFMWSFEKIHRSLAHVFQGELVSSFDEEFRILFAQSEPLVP

[3] = target: T3, FLAG-FAM83H^Q452X (human) (UniProt Q6ZRV2)
T3 sequence: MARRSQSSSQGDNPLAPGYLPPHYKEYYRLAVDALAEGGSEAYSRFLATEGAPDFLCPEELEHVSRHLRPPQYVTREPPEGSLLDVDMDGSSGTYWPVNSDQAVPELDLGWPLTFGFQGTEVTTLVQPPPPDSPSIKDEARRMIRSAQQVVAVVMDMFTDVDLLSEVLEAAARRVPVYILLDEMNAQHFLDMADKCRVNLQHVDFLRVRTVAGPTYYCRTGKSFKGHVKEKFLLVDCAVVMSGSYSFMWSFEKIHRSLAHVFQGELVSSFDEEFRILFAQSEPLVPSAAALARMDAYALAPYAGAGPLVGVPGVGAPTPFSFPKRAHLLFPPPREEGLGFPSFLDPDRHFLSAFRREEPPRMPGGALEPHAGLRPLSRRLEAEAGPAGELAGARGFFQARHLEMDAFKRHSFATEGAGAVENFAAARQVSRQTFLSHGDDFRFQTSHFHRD

binding [1]: no binding | binding [2]: no binding | binding [3]: binds
Substance: protein kinase CK1 isoform ε (CK1ε), endogenous (from UniProt P49674 1-416) (enzyme)

From article PMC7284315
